From PubChem BioAssay AID1476 (National Center for Advancing Translational Sciences (NCATS), 2009)
Values joined by “and” are separate entries in the source; they are usually repeats but may differ in a detail not shown here. Identical values can stand only once. About 4,500 (2.2%) of roughly 200,000 compounds were called active. Inconclusive means that the source gave no clear call. Such entries were picked first, then a sample of the others. Calls come from the whole dose curve; as a rule, active = well fitted inhibition curve with a large enough effect; inconclusive = small, poorly fitted or top-dose-only effect, or effect the other way; inactive = flat fitted curve, though single readings scatter. Potencies of inconclusive entries are doubtful fits and often do not repeat.
Note: nearly all actives have a fitted effect of over 40% in size.
Potency is the fitted concentration of half-maximal effect; tags give direction and shape of the fitted curve.
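Throughout, for max response, negative = inhibition: plate controls were enzyme without inhibitor for no effect and buffer without enzyme for full effect.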

Each compound was assayed against Cruzipain (Trypanosoma cruzi) (UniProt P25779) (assay: qHTS Assay for Promiscuous and Specific Inhibitors of Cruzain (without detergent)). Conditions: purified cruzain, Z-FR-AMC fluorescence, no detergent.
Chain of UniProt P25779 (P25779 whole entry, looked up): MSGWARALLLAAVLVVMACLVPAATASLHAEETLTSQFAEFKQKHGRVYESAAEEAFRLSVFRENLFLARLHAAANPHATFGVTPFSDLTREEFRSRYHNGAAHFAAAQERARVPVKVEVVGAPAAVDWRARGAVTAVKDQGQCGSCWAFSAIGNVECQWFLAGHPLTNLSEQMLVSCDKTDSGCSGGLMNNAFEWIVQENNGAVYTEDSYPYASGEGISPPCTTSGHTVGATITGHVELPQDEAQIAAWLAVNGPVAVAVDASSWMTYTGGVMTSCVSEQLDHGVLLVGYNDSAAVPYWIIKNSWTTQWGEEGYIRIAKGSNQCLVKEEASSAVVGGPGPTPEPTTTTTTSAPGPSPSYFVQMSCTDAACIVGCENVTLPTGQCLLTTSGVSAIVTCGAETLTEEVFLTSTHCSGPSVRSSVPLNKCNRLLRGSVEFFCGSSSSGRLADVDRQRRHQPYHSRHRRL
In short: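 Purified cruzain at 1.5 nM, pre-incubated 15 min with compound at room temperature in 100 mM sodium acetate pH 5.5, 5 mM DTT, 0.00005% Triton X-100. Reaction started with 2 uM Z-FR-AMC; AMC fluorescence increase over 60 s gives rate.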
For O=C(Nc1ccccc1F)c1ccc(CNS(=O)(=O)c2cccc(C(F)(F)F)c2)cc1, the Potency was inconclusive: 39.8 µM [inhibitor, single point].
In the case of O=C(CSc1ccc(Cl)cc1)Nc1nnc(-c2cccc([N+](=O)[O-])c2)s1, the Potency is reported as inconclusive: 39.8 µM [inhibitor, single point].
COc1ccc(Cn2ccc3nc(C)c(C(=O)NCc4ccc(F)cc4)cc3c2=O)cc1 was tested, and the Potency was inconclusive: 15.8 µM [activator, partial curve, poor fit].
In the case of O=c1oc2c(CN3CCN(CCO)CC3)c(O)ccc2cc1-c1ccccc1, the Potency is reported as inconclusive: 39.8 µM [inhibitor, single point].
COc1cccc([C@@H]2Oc3ccc(Br)cc3C(=O)[C@H]2OC(=O)NS(=O)(=O)c2ccc(C)cc2)c1 was tested, and the max response, negative = inhibition was inactive: -10.8%.
In the case of O=C(Oc1c(Br)cc(C(=S)N2CCOCC2)cc1Br)c1ccc(Cl)cc1, the Potency is reported as inconclusive: 39.8 µM [inhibitor, single point].
With C[C@H]1/C=C\CC(=O)NCc2cccc(c2)CNC(=O)N[C@H]1c1ccccc1 the Potency was inconclusive: 31.6 µM [inhibitor, single point].
With Cc1c2ccccc2c(CSC(=N)N)c2ccccc12 the max response, negative = inhibition was inactive: -3.46% and inactive: -0.339%.
Nc1nc2n(n1)C1(CCCCC1)C1=C(CCCC1)N2 was tested, and the Potency was inconclusive: 31.6 µM [activator, single point].
For Cc1ccc(-c2nnn(CC(=O)N(Cc3ccc(F)cc3)C(C(=O)NC3CCCC3)c3ccncc3)n2)o1 (stereo not drawn), the Potency was inconclusive: 25.1 µM [activator, single point].
In the case of Cc1ccc(Cl)cc1N1CCN(Cc2nnc(-c3ccc4c(c3)OCO4)o2)CC1, the max response, negative = inhibition is reported as inactive: 6.11%.
For COc1ccc(C)cc1Nc1nc(-c2c[nH]c3ccccc23)cs1, the Potency was active: 15.8 µM.
For O=C(NCCc1ccccc1Cl)c1ccc2c(c1)nc1n2CCCCC1, the max response, negative = inhibition was inactive: -13.2%.
In the case of Fc1ccc(CN(Cc2ccccc2)C(c2cccs2)c2nnnn2C2CCCCC2)cc1 (stereo not drawn), the Potency is reported as inconclusive: 31.6 µM [inhibitor, single point].
For Cc1nn2c(N3CCN(C(=O)c4ccco4)CC3)cc(C(C)(C)C)nc2c1-c1ccccc1, the Potency was inconclusive: 12.6 µM [activator, partial curve].
CC1=C(C(=O)Nc2nc3ccccc3s2)C(c2ccco2)C(C#N)=C(SCC(=O)NC2CCCCC2)N1 (stereo not drawn) was tested, and the Potency was inconclusive: 31.6 µM [inhibitor, single point].
For Cc1ccc(Nc2nc(C)nc(N)c2S(=O)(=O)c2ccccc2)cc1, the max response, negative = inhibition was inactive: -6.03%.
With CCOC(=O)C1=c2/c(=C/c3ccccc3OC)c(N)c(C#N)n2C(=O)C(c2ccccc2OC)S1 (stereo not drawn) the Potency was inconclusive: 3.16 µM [inhibitor, full curve].
In the case of CCc1nc(Oc2cccc(F)c2)c2oc3ccccc3c2n1, the Potency is reported as inconclusive: 39.8 µM [activator, single point].
CC(=O)N1CCc2c(sc3nc(SCC(C)C)n(-c4ccc(F)c(Cl)c4)c(=O)c23)C1 was tested, and the Potency was inconclusive: 20 µM [activator, partial curve].
For O=c1c2ccccc2nc(/C=C\c2ccccc2F)n1-c1ccc(O)cc1, the Potency was inconclusive: 31.6 µM [inhibitor, single point].
COc1cc2c(=O)n(CC3CCCO3)c(=O)n(CC(=O)Nc3cccc(Cl)c3)c2cc1OC (stereo not drawn) was tested, and the Potency was inconclusive: 39.8 µM [activator, single point].
COc1ccc(-n2c(SCC(=O)Nc3sc4c(c3C#N)CCCC4)nnc2-c2ccccc2OC)cc1 was tested, and the Potency was active: 25.1 µM.
Cn1cccc1C(=O)N1CCC[C@@]2(CCN(c3cccc(-c4ccccc4)c3)C2)C1 was tested, and the Potency was inconclusive: 39.8 µM [activator, single point].
In the case of O=C(Cc1ccc(-n2cccc2)cc1)NCc1cccs1, the Potency is reported as inconclusive: 39.8 µM [inhibitor, single point].
With COCCNS(=O)(=O)c1ccc2c(c1)oc(=O)c1cc(S(=O)(=O)NCCOC)ccc12 the Potency was inconclusive: 25.1 µM [activator, single point].
With Cc1ccc(C)c(OC(=O)CSc2nnc(CNC(=O)c3ccccc3)o2)c1 the Potency was inconclusive: 31.6 µM [activator, single point].
For Cc1ccc(-c2nc(C)c(CCNS(=O)(=O)c3ccc(F)c(C(F)(F)F)c3)s2)cc1, the Potency was inconclusive: 10 µM [activator, partial curve].
Cc1ccc(Cn2c(=N)n(CC(=O)c3ccc([N+](=O)[O-])cc3)c3ccccc32)cc1 was tested, and the Potency was inconclusive: 39.8 µM [inhibitor, single point].
CCn1cc(C2=NOC(C(=O)Nc3cc(OC)c(Cl)cc3OC)C2)c(C)n1 (stereo not drawn) was tested, and the Potency was inconclusive: 39.8 µM [activator, single point].
With CCN(Cc1ccccc1)C(=O)Cn1c(=O)n(-c2ccc(C)c(C)c2)c(=O)c2c(C)c(C)sc21 the max response, negative = inhibition was inactive: -3.7%.
With O=c1cc(-c2ccccc2)n2c(SCc3ccc(F)cc3)nnc2[nH]1 the max response, negative = inhibition was inactive: -3.54%.
CCOC(=O)c1cc(-c2ccccc2)sc1NC(=O)C(C)N1C(=O)c2ccccc2C1=O (stereo not drawn) was tested, and the Potency was active: 25.1 µM.
COc1ccc(C(=O)Oc2cc(/C=N/NS(=O)(=O)c3ccc(C)cc3)ccc2OC)cc1 was tested, and the Potency was inconclusive: 31.6 µM [inhibitor, single point].
Fc1ccc(CSc2nnc(Cc3sc(-c4ccccc4)nc3-c3ccccc3)o2)cc1 was tested, and the Potency was inconclusive: 39.8 µM [inhibitor, single point].
Cc1cc(C)c2nc(NC(=O)c3ccc4c(c3)OCO4)sc2c1 was tested, and the Potency was active: 10 µM.
In the case of COc1cc(C=O)ccc1OCCOCCOc1c(C)cc(Cl)cc1Cl, the Potency is reported as inconclusive: 31.6 µM [inhibitor, single point].
NCCC[C@@H](CC(=O)N[C@@H]1CCNC[C@H]1C(=O)N[C@H](CC(=O)N[C@@H](CCC(=O)O)CC(=O)O)Cc1c[nH]c2ccccc12)NC(=O)C[C@H](Cc1c[nH]c2ccccc12)NC(=O)[C@@H]1CNCC[C@H]1N was tested, and the max response, negative = inhibition was inactive: -3.23%.
In the case of COc1ccc(CCNC(=O)c2cc(-c3ccc(Cl)c(Cl)c3)oc2C)cc1, the Potency is reported as inconclusive: 39.8 µM [inhibitor, single point].
For CN(C)c1ccccc1, the max response, negative = inhibition was inactive: -1.28%.
In the case of Cc1ccccc1C(=O)Nc1cccc(NC(=O)c2ccc(-c3ccc(Br)cc3)o2)c1, the Potency is reported as inconclusive: 12.6 µM [inhibitor, partial curve].
With CCOc1ccc(-c2nn(CC(=O)NC3CCCC3)c3c2cnc2ccc(F)cc23)cc1 the Potency was inconclusive: 39.8 µM [activator, single point].
In the case of Cn1cccc1Cc1nnc(SCC(=O)N2CCc3ccccc32)n1-c1ccc(F)cc1, the Potency is reported as inconclusive: 25.1 µM [activator, single point].
N[C@@H](Cc1cc(-c2ccc(Cl)cc2Cl)cc(CP(=O)(O)O)c1O)C(=O)O was tested, and the max response, negative = inhibition was inactive: 0.135%.
COCCn1c(=S)[nH]c2cc(C(=O)N3CCN(c4ccccc4OC)CC3)ccc2c1=O was tested, and the Potency was inconclusive: 39.8 µM [activator, single point].
O=C(Nc1nccs1)c1cc2sccc2n1Cc1ccc(F)cc1 was tested, and the Potency was inconclusive: 31.6 µM [inhibitor, single point].
CCCOc1ccc2ccccc2c1/C=N/n1c(C)nnc1-n1nc(C)cc1C was tested, and the Potency was inconclusive: 39.8 µM [activator, single point].
With CCc1ccc(CNC(=O)C2CCN(C(=O)c3ccc(-n4ccc5ccccc54)s3)CC2)cc1 the max response, negative = inhibition was inactive: 10.3%.
O=c1c2c3c(sc2n(CCN2CCCC2)c(=O)n1Cc1ccco1)CCCCC3 was tested, and the Potency was inconclusive: 31.6 µM [inhibitor, single point].
In the case of O=C(NNc1c2ccccc2nc2ccccc12)c1ccc(O)cc1O, the Potency is reported as inconclusive: 31.6 µM [inhibitor, single point].
In the case of CN(CCOc1ccc(-c2ccn(S(=O)(=O)c3cccc4ccccc34)n2)cc1)c1ccccn1, the Potency is reported as active: 25.1 µM.
With CC1CC(C)CN(c2ccc(-n3cnnn3)cc2[N+](=O)[O-])C1 (stereo not drawn) the max response, negative = inhibition was inactive: 3.13%.
With COc1ccc(CNC(=O)/C=C/c2cc3c(cc2Br)OCO3)cc1 the Potency was inconclusive: 39.8 µM [inhibitor, single point].
With Cc1cccc(N2CCN(C(=O)CN3C(=O)COc4ccc(S(=O)(=O)N5CCCC5)cc43)CC2)c1C the Potency was inconclusive: 31.6 µM [activator, single point].
With COC(=O)c1cc2oc(C)cc2n1Cc1ccc(C)cc1 the max response, negative = inhibition was inactive: -7.19%.
In the case of CCS(=O)(=O)N1Cc2ccccc2CC1C(=O)N1CCN(c2cccc(C)c2C)CC1 (stereo not drawn), the Potency is reported as inconclusive: 31.6 µM [inhibitor, single point].
O=C(NC(=O)c1ccc(F)cc1)Nc1nc(-c2cccs2)cc(C(F)(F)F)n1 was tested, and the Potency was inconclusive: 25.1 µM [activator, single point].
COc1cccc(-n2c(SCC(=O)NCCC3=CCCCC3)nc3n[nH]c(C)c3c2=N)c1 was tested, and the Potency was inconclusive: 39.8 µM [activator, single point].
In the case of CC(C)c1ccc(NC(=O)CN2C=NS(=O)(=O)c3ccccc32)cc1, the max response, negative = inhibition is reported as inactive: 18.6%.
For Cc1cc(C(F)F)n2nc(C(=O)Nc3sc4c(c3C(N)=O)CCC4)nc2n1, the Potency was inconclusive: 31.6 µM [activator, single point].
For COc1cccc2cc(/C(C)=N/Nc3nc(-c4cc(C)ccc4C)cs3)c(=O)oc12, the Potency was active: 5.01 µM.
For CCCC1=[N+](CC)CCn2c(C)ccc21, the max response, negative = inhibition was inactive: -2.85%.
For Cc1ccc(NC(=O)COC(=O)c2ccc3c(c2)C(=O)N(CCc2ccccc2)C3=O)c(C)c1, the Potency was active: 25.1 µM.
